ChEMBL document CHEMBL4888484, “Replenishing the malaria drug discovery pipeline: Screening and hit evaluation of the MMV Hit Generation Library 1 (HGL1) against asexual blood stage Plasmodium falciparum ,using a nano luciferase reporter read-out” (2022)
Among all 150,000 compounds or so, about 540 (0.36%) showed an effect of 50% or more. This is one part of the list.

test system: Plasmodium falciparum; assay: Primary screen in NF54 nanoGlo assay, in single point, at 2uM, 72h; a lower Z score goes with more inhibition; assay type: functional, Erythrocyte; settings: timepoint 72 hour

SMILES | % Inhibition | Z score
Clc1ccc(C2CC(c3cccnc3)Nc3nnnn32)cc1 (stereo not drawn) | 34% | -4.62
CCOc1ccc(CN2C[C@H]3CC[C@H]2C3)cc1Cl | 8% | -1.34
O=C(Nc1ccccc1NCC(F)(F)F)c1cn([C@H]2CCOC2)nn1 | -5% | 0.45
Cc1cnn(CC(C)NC2CCOC2=O)c1 (stereo not drawn) | -8% | 1.25
Cn1cccc1C(=O)N[C@H]1COC[C@@H]1N1CCOCC1 | -6% | 0.79
CC(=O)Nc1ccc(S(=O)(=O)N2CC3C[C@H](C2)c2cccc(=O)n2C3)cc1 | -6% | 0.51
Cc1cnn(C[C@H](C)NCc2cn(C(C)(C)C)nn2)c1 | -16% | 1.81
C[C@H](Oc1ccccc1)c1nc(-c2ccc3c(c2)oc(=O)n3C)no1 | -4% | 0.39
CC(=Cc1ccc(C)cc1)C(=O)NC[C@H]1CN2CCC1CC2 | -6% | 1.07
CC(C)n1ncc(C(=O)N[C@@H]2CCC[C@H]2N(C)C)c1C1CC1 | -4% | 0.47
CCN(Cc1ccnc(C(C)C)n1)[C@@H](C)Cc1ccc(OC)cc1 | -4% | 0.57
CCc1nc(C)sc1CN1C[C@H]2c3ccccc3OC[C@@]2(C(=O)O)C1 | -12% | 1.93
O=C(c1cc(-c2ccccc2)on1)N1C[C@@H]2C[C@@H](C1)c1cccc(=O)n1C2 | -6% | 0.88
CCOC(=O)c1c(-c2ccccc2)n(Cc2ccccc2)c2ccc(OC(C)=O)cc12 | -9% | 0.99
Cc1ccccc1[C@H](Cn1ccnc1-c1c[nH]cn1)N(C)C | 8% | -1.14
O=C1NC(=O)C(CCc2ccncc2)(C(c2ccccc2)c2ccccc2)C(=O)N1 | -13% | 1.73
CCN(CC)C(=O)Oc1ccc2c(ccn2Cc2cccc(C#N)c2)c1-c1cc(C)cc(C)c1 | -2% | 0.23
CC(C)O[C@H]1CN(C2CCCCCC2)C[C@@H]1O | -18% | 2.31
COc1ccc(CC(=O)N2CCN([C@@H](C)c3noc(C)n3)CC2)cc1 | 4% | -0.8
Clc1ccccc1OCC#CCN1CCOCC1 | -1% | 0.12
CC1CN2CCCC2CN1S(=O)(=O)c1cncc(F)c1 (stereo not drawn) | -1% | 0.11
CCC1(c2ccccc2)C(=O)N(C(=O)c2ccc(OC)cc2)C(=O)N(C(=O)c2ccc(OC)cc2)C1=O | -6% | 0.75
O=c1[nH]c2cc(Cl)c(S(=O)(=O)Nc3ccc(F)cn3)cc2o1 | -5% | 0.85
CCc1nn(C)c(Cl)c1-c1c(C#N)c(N)nc2c1[C@@H]1CC[C@H](C2)N1C | -2% | 0.36
CCC(N)C(O)c1c(F)cccc1F (stereo not drawn) | 13% | -1.72
O=C(N[C@H]1CCN(c2ccccc2F)C1)c1ccc2oc(=O)[nH]c2c1 | -6% | 0.7
C[C@@H](c1cccnc1)N(C)CCc1cc(Cl)c2c(c1)OCCCO2 | 3% | -0.4

SMILES | % Inhibition | Z score
OCCN1CCN(Cc2cccc3c2OCCO3)CC1 | -4% | 0.44
Cc1ccccc1CC(=O)N1CCN(Cc2ccco2)[C@@H]2CS(=O)(=O)C[C@@H]21 | -12% | 2.32
c1nncn1CCN1CCC2(CCCCCC2)C1 | -8% | 1.36
C=CC1CN2CCC1CC2C(O)c1cc[n+](Cc2ccccc2)c2ccccc12 (stereo not drawn) | -3% | 0.52
CC(C)[C@@H](CO)NCCc1cccc(F)c1F | -4% | 0.59
CCC(=O)N1CC2(C[C@@H](c3nc(-c4ccncc4)no3)N(C)C2)C1 | -11% | 1.33
COc1cccc(NC(=O)N[C@@H](C)Cc2cc3c(c(OC)c2OC)OCO3)c1 | 3% | -0.29
Cc1ncc2c(c1-c1noc(-c3cn[nH]c3)n1)CCNC2 | -11% | 1.04
c1coc(-c2ncc(CN3CCC4(CCCC4)C3)cn2)c1 | -3% | 0.52
O=S(=O)(F)c1ccc(-c2cn(CC3CC(F)(F)C3)nn2)cc1 | 2% | -0.18
O=C(Nc1ccc(-c2noc(=O)[nH]2)cc1)C1=Cc2ccccc2OC1 | -6% | 1.22
Cc1cc(C)n2nc(C)c(C(=O)N[C@H]3COC[C@@H]3N3CCCC3)c2n1 | -6% | 1.15
CN1CCN(Cc2cccc3c2OCO3)[C@@H](CO)C1 | -8% | 1.2
O=C1C2CCCNC2C(=O)N1Cc1ccccc1 (stereo not drawn) | -11% | 1.09
CC(C)N1CCC(N(C)c2ccc3nnc(C(F)(F)F)n3n2)CC1 | 10% | -1.78
CCn1nc(C)c2ccnc(N3CCC(C(=O)N4CCC5(CC4)OCCO5)CC3)c21 | -17% | 2.74
Cc1ccc(F)c(CNC(=O)c2cn(C[C@H]3CCCNC3)nn2)c1F | 3% | -0.39
CCOc1ccc(NC(=O)CN2CC=C(c3cnn(C)c3)CC2)cc1 | -9% | 0.93
Cc1ncc(C)c(N2CCC3(CCCN(C)C3)CC2)n1 | -9% | 1.22
O=c1onc(-c2ccccn2)n1Cc1cccc2ccccc12 | -11% | 1.47
CC(C)c1ncc(CN2CCN3CCC[C@H]3C2)cn1 | 4% | -0.79
COc1ccc(N(C(=O)c2ccc(C)cc2)C2(C(=O)NCc3ccccc3)CCN(C(C)=O)CC2)cc1 | -9% | 1.26
c1ccc2c(c1)CCCc1ccccc1C2OCCN1CCOCC1 | -18% | 2.08
CCn1ccnc(N2CCN(C)CC2)c1=O | -2% | 0.24
Cc1nc(CN2CCOC3(CCCC3)C2)sc1C | -5% | 0.77
O=C(NC[C@H]1C[C@@H]2CC[N@]1C[C@@H]2CN1CCN(c2ccc(F)cc2)CC1)c1ccco1 | -2% | 0.29
Cc1cccc(OCC(=O)N2CCN(CC3=CCCOC3)CC2)c1C | -4% | 0.41
